The text below walks through data of PMC5426793.

Protein sequences, listed by entry. Tags and fused reporters are not part of them.
UniProt O43791: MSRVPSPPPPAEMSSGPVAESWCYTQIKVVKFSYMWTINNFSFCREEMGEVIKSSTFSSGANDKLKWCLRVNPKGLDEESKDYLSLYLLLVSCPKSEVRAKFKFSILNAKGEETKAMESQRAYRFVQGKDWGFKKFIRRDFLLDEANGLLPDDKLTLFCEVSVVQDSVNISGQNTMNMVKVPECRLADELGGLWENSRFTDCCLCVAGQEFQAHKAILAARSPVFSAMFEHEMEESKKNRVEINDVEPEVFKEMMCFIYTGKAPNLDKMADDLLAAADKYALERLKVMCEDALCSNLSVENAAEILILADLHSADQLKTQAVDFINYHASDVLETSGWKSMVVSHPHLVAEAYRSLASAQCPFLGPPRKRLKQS

Results are given in words; binding and its absence hold for the method and conditions named. In cells and extracts the contact can be indirect. Some binding calls cover weakened binding; strength is not graded here.

The experiment concerns the target FLAG-SPOP (lentivirus, LNCaP) (UniProt O43791). As to the kind of experiment: co-IP; LNCaP cells infected with lentivirus expressing FLAG-SPOP or control, 20 μM MG132 for 8 h before harvesting; anti-FLAG antibody; endogenous partners by Western blot. Background: In western blotting, separated proteins are transferred to a membrane and probed.

B1: DEK (endogenous, LNCaP) (protein, UniProt P35659 1-375)
chain: MSASAPAAEGEGTPTQPASEKEPEMPGPREESEEEEDEDDEEEEEEEKEKSLIVEGKREKKKVERLTMQVSSLQREPFTIAQGKGQKLCEIERIHFFLSKKKTDELRNLHKLLYNRPGTVSSLKKNVGQFSGFPFEKGSVQYKKKEEMLKKFRNAMLKSICEVLDLERSGVNSELVKRILNFLMHPKPSGKPLPKSKKTCSKGSKKERNSSGMARKAKRTKCPEILSDESSSDEDEKKNKEESSDDEDKESEEEPPKKTAKREKPKQKATSKSKKSVKSANVKKADSSTTKKNQNSSKKESESEDSSDDEPLIKKLKKPPTDEELKETIKKLLASANLEEVTMKQICKKVYENYPTYDLTERKDFIKTTVKELIS
Take B1: the binding result is “binds”.
